# No constants are given. Whether binding was seen depends on the method and setting. Binding seen in cells or lysates may run through a third protein. Some entries that bind do so weakly or less than the wild type.
# Sequences of proteins named here, by UniProt entry; tags and fusion partners are left off. A change or cut given only in a name is not applied to a line headed by its entry. A line that says so, or that is headed by a name, gives the form on record, which may keep a tag or linker. Residues count along the entry.
# UniProt P84022: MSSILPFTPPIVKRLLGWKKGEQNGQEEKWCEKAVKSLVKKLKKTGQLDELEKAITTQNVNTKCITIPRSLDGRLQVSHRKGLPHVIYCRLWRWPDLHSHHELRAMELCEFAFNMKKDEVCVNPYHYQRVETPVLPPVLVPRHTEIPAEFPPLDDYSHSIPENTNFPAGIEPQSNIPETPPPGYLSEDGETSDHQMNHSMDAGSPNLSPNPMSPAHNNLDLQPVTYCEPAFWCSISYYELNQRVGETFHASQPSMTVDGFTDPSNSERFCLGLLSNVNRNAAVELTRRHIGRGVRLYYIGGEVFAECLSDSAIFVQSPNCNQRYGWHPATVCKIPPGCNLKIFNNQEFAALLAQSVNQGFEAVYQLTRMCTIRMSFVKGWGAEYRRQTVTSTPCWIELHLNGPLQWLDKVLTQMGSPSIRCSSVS
# endogenous PINK1 (Q9BXM7, residues 78-581): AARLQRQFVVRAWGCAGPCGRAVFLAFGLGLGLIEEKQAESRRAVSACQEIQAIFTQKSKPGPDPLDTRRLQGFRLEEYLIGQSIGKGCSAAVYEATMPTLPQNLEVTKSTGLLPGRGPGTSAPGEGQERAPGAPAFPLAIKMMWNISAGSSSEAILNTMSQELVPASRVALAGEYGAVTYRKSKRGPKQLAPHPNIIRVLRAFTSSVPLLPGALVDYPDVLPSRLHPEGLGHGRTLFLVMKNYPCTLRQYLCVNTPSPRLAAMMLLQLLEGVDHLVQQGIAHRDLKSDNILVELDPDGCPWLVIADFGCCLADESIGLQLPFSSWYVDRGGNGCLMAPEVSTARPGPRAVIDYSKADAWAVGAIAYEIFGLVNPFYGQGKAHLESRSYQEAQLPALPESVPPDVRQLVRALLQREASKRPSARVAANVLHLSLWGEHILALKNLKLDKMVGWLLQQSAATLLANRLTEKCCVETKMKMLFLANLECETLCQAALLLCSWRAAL
# PINK1-KD-V5 (PINK1 kinase-dead mutant, K219A/D362A/D384A) (Q9BXM7, form named): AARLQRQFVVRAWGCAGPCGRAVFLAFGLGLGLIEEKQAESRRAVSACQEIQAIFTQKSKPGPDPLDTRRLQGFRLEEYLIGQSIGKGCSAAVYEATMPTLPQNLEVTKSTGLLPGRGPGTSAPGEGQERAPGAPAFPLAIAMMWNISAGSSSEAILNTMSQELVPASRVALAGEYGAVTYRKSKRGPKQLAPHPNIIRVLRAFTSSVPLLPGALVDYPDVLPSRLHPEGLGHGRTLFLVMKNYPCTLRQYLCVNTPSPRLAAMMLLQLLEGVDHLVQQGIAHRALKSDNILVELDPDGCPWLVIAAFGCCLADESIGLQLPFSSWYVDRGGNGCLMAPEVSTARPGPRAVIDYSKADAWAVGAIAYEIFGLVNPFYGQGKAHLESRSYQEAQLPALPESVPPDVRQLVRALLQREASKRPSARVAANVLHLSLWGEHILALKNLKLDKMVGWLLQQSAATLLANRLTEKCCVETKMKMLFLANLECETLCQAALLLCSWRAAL
# Assays:
# [1] = biological target: Flag-SMAD3 (SMAD Family Member 3) (human) (UniProt P84022); test: co-IP; lysates of HeLa WT cells overexpressing Flag-SMAD3 and PINK1-WT-V5 or PINK1-KD-V5
# [2] = biological target: Flag-SMAD3 (SMAD Family Member 3) (human) (UniProt P84022); test: co-IP; cells with Parkin expression (Supplementary Fig. S6c, d; legend not shown); co-IP of PINK1 and SMAD3
# [3] = biological target: Flag-SMAD3 (SMAD Family Member 3) (human) (UniProt P84022); test: co-IP; lysates of HeLa WT cells (no Parkin) overexpressing Flag-SMAD3 and/or PINK1-MYC; reciprocal co-IP with anti-FLAG or anti-MYC and magnetic beads, Pierce IP lysis buffer, washed with TBST, western blotting
# [4] = biological target: Flag-SMAD3 (SMAD Family Member 3) (human) (UniProt P84022); test: co-IP; lysates of HeLa WT cells overexpressing Flag-SMAD3, treated with/without O/A (1/1 μM) for 4 h; endogenous PINK1 detected in the precipitate
substance,measurement,setting,value
"PINK1-KD-V5 (PINK1 kinase-dead mutant, K219A/D362A/D384A) (from UniProt Q9BXM7 78-581)",binding,[1],no binding
PINK1-MYC (PTEN-induced kinase-1) (from UniProt Q9BXM7 78-581),binding,[2],binds
same,binding,[3],binds
PINK1-WT-V5 (from UniProt Q9BXM7 78-581),binding,[1],binds
endogenous PINK1 (from UniProt Q9BXM7 78-581),binding,[4],binds
